Reference: PubChem BioAssay AID463173 (ICCB-Longwood Screening Facility, Harvard Medical School, 2010)
Out of some 52,000 compounds screened, about 4,300 (8.3%) were called active. Cut-off read from the data, not from the text of the source: active = survival mostly below about 52% (no sharp cut-off); inactive = mostly above about 56%. Some of the results follow.

The compounds below were run on DeltatarO mutant (assay: growth inhibition of S. aureus wild type versus tarO mutant, primary screen, teichoic acid synthesis inhibitors, RN4220, OD600 (AID 463173)). Conditions: OD600, 18 h, stronger effect = lower value, screened at 18.75 µg/mL (by protocol).

Structure (SMILES) | survival
O=C(Nc1ccc(C(=O)OCc2cc(=O)n3ccsc3n2)cc1)c1cccc(F)c1 | inactive: 102%
CCOc1ccc(CC(=O)Nc2c(C(=O)c3ccc(F)cc3)oc3ccc(Cl)cc23)cc1OCC | inactive: 83%
Nc1cccc(CN2CCCC2)c1 | inactive: 101%
COc1ccc(OC)c(CNC(=O)C2CCN(S(=O)(=O)c3ccc4[nH]c(=O)oc4c3)CC2)c1 | inactive: 88%
COc1ccc(NC(=O)C(=O)NCc2ccco2)c(OC)c1 | inactive: 161%
COc1ccc(N2CCN(c3oc(/C=C/c4ccccc4OC)nc3C#N)CC2)cc1 | inactive: 64%
Cc1noc2ncnc(NCc3ccc(Cl)cc3)c12 | inactive: 116%
Cc1cc(NC(=O)C2CCCN(S(=O)(=O)c3cn(C)cn3)C2)ccc1Br (stereo not drawn) | inactive: 102%
Cc1ccc(-c2cc(NC(=O)C(C)Oc3ccccc3F)on2)cc1 (stereo not drawn) | active: 33%
CN(C)c1ccc(C(=O)Nc2ccc(-c3nc4ccccc4o3)cc2)cc1 | inactive: 89%
CCOC(=O)c1ccc(-c2ccc(/C=C(\C#N)C(=O)NCc3cccs3)o2)cc1 | inactive: 75%
CC(C)NC(=O)CSc1nc2ccccc2n1CC(=O)NC(C)C | inactive: 96%
Cc1ccc(CNC(=O)c2c[nH]n3c(=O)c(Cc4ccc(F)cc4Cl)c(C)nc23)cc1 | active: -13%
CCNC(=S)N1CCC(n2cnc3ccccc32)CC1 | inactive: 95%
Cn1c(C(=O)N2CCC(C(=O)N3CCN(c4ccccc4)CC3)CC2)cc2sccc21 | inactive: 64%
CN1CCN(S(=O)(=O)c2cccc(S(=O)(=O)c3ccc(Cl)c(Cl)c3)c2)CC1 | inactive: 102%
COc1ccc(N2Cc3cccc(C(=O)Nc4cccc(F)c4)c3C2=O)cc1 | inactive: 71%
CCOc1ccc(S(=O)(=O)N(CC(=O)NCCSc2ccc(C)cc2)c2ccccc2)cc1 | inactive: 76%
Cc1ccc(NC(=O)N2CCN(c3ccc(Cl)c(Cl)c3)CC2)cc1 | inactive: 102%
CCc1nnc(SCC(=O)Nc2cc(OC)ccc2OC)nc1CC | inactive: 74%
CCN(Cc1ccccc1)C(=O)c1cc2c(=O)[nH]c3ccc(C)cc3c2s1 | inactive: 49%
Cc1ccc(CCNC(=O)c2cc3n(n2)CCCN(Cc2ccc(C)cc2)C3=O)cc1 | inactive: 55%

Structure (SMILES) | survival
COC(=O)c1c(NC(=O)c2cccs2)sc2c1C(C(=O)OC)CC2 (stereo not drawn) | inactive: 94%
Cc1ccc2c(c1)-c1onc(C(=O)N3CCN(c4cc(Cl)ccc4C)CC3)c1CO2 | active: 57%
CCC(=O)N1CCc2cc(CNC(=O)Cc3ccc(F)cc3)ccc21 | inactive: 87%
CCOc1cccc(C(=O)Nc2ccc(Cl)cn2)c1 | inactive: 72%
CCOc1ccc(-c2nnc(SCC(=O)Nc3ccc(C)cc3Cl)o2)cc1 | inactive: 101%
CC1Cc2ccccc2N1S(=O)(=O)c1nnc(NC(=O)c2cccc(F)c2)s1 (stereo not drawn) | active: 6%
O=C(NC1CCCC1)C(c1ccsc1)N(C(=O)Cc1cccs1)c1ccccc1 (stereo not drawn) | inactive: 86%
Cc1ccc(NC(=O)c2cc(S(=O)(=O)NC3CCCCC3)ccc2F)cc1Cl | active: -5%
CCC(=O)N1CCc2cc(CNC(=O)c3ccc(OC)cc3)ccc21 | inactive: 122%
COc1ccc(-c2nc(CN3CCC(C(=O)NCCc4ccccc4)CC3)c(C)o2)cc1OC | inactive: 86%
CCCCn1cc(S(=O)(=O)c2ccc(C)c(C)c2)c(=O)c2cc(F)c(N(CC)CC)cc21 | inactive: 89%
Cc1ccc(NC(=O)CSc2nc(=O)n(Cc3ccco3)c3c2CCC3)cc1F | inactive: 81%
Cn1c(=O)c(=O)n(C)c2cc(N3CCCC3)c(NC(=O)c3ccccc3F)cc21 | inactive: 98%
O=C(Nc1sc2c(c1C(=O)Nc1cccc(Cl)c1)CCCC2)c1cccs1 | inactive: 159%
COc1ccc2[nH]cc(CCNC(=O)c3cnn(-c4ccc(C)cc4)c3C3CCN(C(=O)OC(C)(C)C)CC3)c2c1 | inactive: 90%
COCCN1C(=O)c2oc3ccc(C)cc3c(=O)c2C12C(=O)N(C)c1ccccc12 (stereo not drawn) | active: 45%
COC(=O)c1cc2oc3ccccc3c2n1Cc1nc(-c2cccc(C)c2)oc1C | inactive: 71%
CC(C)N(Cc1ccccc1)C(=O)C1CCCN(c2ncnc3onc(-c4ccc(F)cc4)c23)C1 (stereo not drawn) | inactive: 94%
COc1ccccc1CNC(=O)c1cnc(SC)nc1C | inactive: 98%
COCC(=O)Nc1cccc(-c2nc3cccnc3s2)c1 | inactive: 68%
Cc1c(C(=O)N2CCC(C)CC2)c(S(=O)(=O)Nc2cccc(C(F)(F)F)c2)c(C)n1C | inactive: 94%
COc1ccc(OC)c(CCNC(=O)c2cnn(-c3ccc(C)cc3C)c2C2CCN(C(=O)OC(C)(C)C)CC2)c1 | inactive: 98%

Structure (SMILES) | survival
CCOC(=O)c1c(NC(=O)COc2ccc(C)cc2C(C)(C)C)sc2c1CCC(C)C2 (stereo not drawn) | inactive: 55%
Cc1ccc(Cn2c(CNC(=O)Cc3cccc(C)c3)nc3cccnc32)cc1 | inactive: 94%
CC(=O)c1ccc(N2CCN(S(=O)(=O)c3cc(-c4noc(C)n4)ccc3C)CC2)cc1 | inactive: 118%
COc1ccc(CNC(=O)Cn2c(=O)ccc3cc(S(=O)(=O)N4CCCC4)ccc32)cc1 | inactive: 115%
Cc1nn(S(=O)(=O)c2ccc(C(C)(C)C)cc2)c(C)c1S(=O)(=O)N1CCC(C)CC1 | inactive: 74%
Cc1ccc(-c2nnc(Nc3ccc(F)cc3)c3ccccc23)cc1S(=O)(=O)N1CCN(C)CC1 | inactive: 94%
CC(C)CC(NC(=O)c1ccco1)C(=O)O (stereo not drawn) | inactive: 71%
O=C(c1ccccc1Cl)N1CCCCC1CCN1CCOCC1 (stereo not drawn) | inactive: 86%
CCOc1cccc2c1Oc1nc(-c3ccccc3)nc(SCC(=O)Nc3ccc(F)cc3)c1C2 | inactive: 81%
CCOC(=O)c1ccc(N2C(=O)c3[nH]nc(-c4ccc(OCC)cc4)c3C2c2cccs2)cc1 (stereo not drawn) | inactive: 79%
CC(C)OC(=O)CSc1nnc(-c2ccccc2)n1Cc1ccco1 | inactive: 87%
Cc1cc(-c2ccc(S(=O)(=O)N3CCN(c4ccc(Cl)cc4)CC3)s2)on1 | inactive: 124%
COc1ccc(NC(=O)c2sc3nc4c(c(-c5ccc(OC)cc5)c3c2N)C(=O)CC(C)(C)C4)cc1 | inactive: 61%
COc1ccc(-c2nc3scc(CCNC(=O)c4cccc(Br)c4)n3n2)cc1 | inactive: 90%
O=C(Nc1cc(-c2nc3cc(Cl)ccc3o2)ccc1Cl)c1cc([N+](=O)[O-])ccc1N1CCOCC1 | inactive: 50%
Cc1ccc(S(=O)(=O)N(C)Cc2nc(-c3ccccc3)oc2C)cc1 | inactive: 71%
CN(C)CCNC(=O)C(=O)NCC(c1cccnc1)N1CCN(c2ccc(F)cc2)CC1 (stereo not drawn) | inactive: 69%
CCOc1ccccc1NC(=O)Cn1nnc(C(=O)NCc2ccc(F)cc2)c1N | inactive: 93%
COc1ccc(Cn2ccc3nc(C)c(C(=O)N4CCN(c5ccc(OC)cc5)CC4)cc3c2=O)cc1 | inactive: 124%
CCc1nc2nc(C)c(NS(=O)(=O)c3ccc(C)cc3)c(=O)n2[nH]1 | inactive: 89%
COc1cccc(N2CCN(C(=O)CCCCCn3c(=O)[nH]c4ccccc4c3=O)CC2)c1 | inactive: 67%
CC1CCn2c(nc3cc(C(=O)NCc4ccc(OC(C)C)cc4)ccc32)C1 (stereo not drawn) | inactive: 82%

Structure (SMILES) | survival
CCc1ccc(CNC(=O)c2cc3c(=O)n(Cc4cccs4)ccc3nc2C)cc1 | active: 32%
CCC(C(=O)NC1CCC(C)CC1)n1nc(C)c2sc3ccccc3c2c1=O (stereo not drawn) | inactive: 89%
CC(C)c1ccc(NC(=O)CSc2nc3ccccc3nc2Cc2ccccc2)cc1 | inactive: 66%
COc1ccccc1CNC(=O)C1CCN(S(=O)(=O)c2ccc3c(c2)CCCN3C(C)=O)CC1 | inactive: 83%
Cc1cc(N2C(=O)CCC2=O)n(-c2ccccc2)n1 | inactive: 89%
CCOc1ccc(-n2c(=O)c3c4c(sc3n(CC(=O)NC(C)CC)c2=O)CCCC4)cc1 (stereo not drawn) | inactive: 85%
CC(=O)c1cccc(NC(=O)C2CCN(S(=O)(=O)c3ccc4[nH]c(=O)ccc4c3)CC2)c1 | inactive: 94%
Cc1ccc(CNC(=O)C2CCN(Cc3nc(-c4cccc(Br)c4)oc3C)CC2)cc1 | inactive: 101%
Cc1ccc(-n2nc3ccc(NC(=O)COc4ccccc4)cc3n2)cc1Cl | inactive: 77%
Cc1cccc(-n2c(=O)c3ccccc3n(Cc3ccccc3)c2=O)c1 | inactive: 80%
O=C(CSc1nc2c([nH]c3ccccc32)c(=O)n1-c1cccc(C(F)(F)F)c1)N1CCc2ccccc21 | inactive: 78%
CCc1cc2c(cc(C(=O)OC)n2Cc2nc(-c3ccc(C)cc3)oc2C)s1 | active: 26%
Cc1cc(C(=O)OC(C)C)ccc1-c1ccc(C=C(C#N)C#N)o1 | inactive: 104%
COc1ccc(-c2c(C)nn3c(C(F)(F)F)cc(-c4ccccc4)nc23)cc1 | inactive: 62%
COc1ccc(OC)c(NC(=O)c2cc(C3CC3)nc3c2c(C)nn3-c2ccc(C)cc2)c1 | inactive: 64%
Cc1cc(C)cc(NC(=O)Cc2c(C(=O)O)c(C)cn2C)c1 | inactive: 60%
O=C(Cn1cc(SCc2ccccc2F)c2ccccc21)N1CCCCC1 | inactive: 82%
O=C(NCc1ccco1)c1ccc2c(c1)N(Cc1c(F)cccc1Cl)C(=O)c1ccccc1S2 | inactive: 78%
CCOC(=O)Cc1nnc2c3ccccc3n(C)c2n1 | inactive: 96%
CC1CCCN(Cc2nc3c(c(=O)n(C)c(=O)n3C)n2Cc2ccc(Cl)cc2)C1 (stereo not drawn) | inactive: 90%
O=C(Nc1cc(Cl)ccc1Cl)c1cc2nc(-c3ccc4c(c3)OCO4)cc(C(F)(F)F)n2n1 | inactive: 76%
CSc1ccc(CNC(=O)C2CCN(c3nc4ccccc4nc3C(F)(F)F)CC2)cc1 | inactive: 107%
